Measured values taken from the supplement of paper PMC10126150.
Sequences with one replicate were seen in a single cluster, so their values are uncertain.

Test system: ATP
Test: switch fluorescence ratio, 500 uM ATP over buffer (Cy3 cluster intensity, sum of 5 cycles each) (fold (ratio)); higher = stronger signal-on switching upon ATP binding; sequences stand for … in TCGTCGGCAGCGTCAGATGTGTATAAGAGACAGTTTTTTTTTTTTTTTTTTTTTTTTT…TC
Conditions: aptamer strand: ATP DNA aptamer (quencher-CACCTGGGGGAGTATTGCGGAGGAAGG + anchor), 100 nM annealed; ATP concentration: 500 uM; one replicate
In short: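 Exposure to 500 uM ATP lasted 15 min at 22 °C before imaging, and a selection-buffer image was taken beforehand, for Cy3-labelled switching-strand clusters on a modified Illumina MiSeq flow-cell annealed to 100 nM quencher-labelled ATP aptamer. Five buffer/ATP cycles were run with NaOH stripping and re-annealing between them. The fluorescence ratio per cluster is summed target-cycle over summed buffer-cycle Cy3 intensity, averaged per switch-domain sequence. Clusters outside 100-1000 RFU were excluded.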

CGGTCTAATG
switch fluorescence ratio: 0.932

GCACTGGGAT
switch fluorescence ratio: 1.03

TCGGGGTCGC
switch fluorescence ratio: 0.938

GCTGGGGGT
switch fluorescence ratio: 1

GGTATCTTGC
switch fluorescence ratio: 0.979

ACGACGGAGG
switch fluorescence ratio: 1.05

CGCGGTGTTG
switch fluorescence ratio: 1.02

CCGTCCGGGG
switch fluorescence ratio: 2.12

TGTCGGAAGG
switch fluorescence ratio: 0.985

GACTTTGAAG
switch fluorescence ratio: 1.12

CTGTTACGGT
switch fluorescence ratio: 1.02

ACCTGAAGGG
switch fluorescence ratio: 1

CAACTGCCTC
switch fluorescence ratio: 1.08

GTGGCAGCCT
switch fluorescence ratio: 0.996

ATGGAAAAAA
switch fluorescence ratio: 1.03

TTAAAAAATA
switch fluorescence ratio: 0.988

AATATCATTC
switch fluorescence ratio: 1

AATTGTTACT
switch fluorescence ratio: 1.02

GAGCTCTATG
switch fluorescence ratio: 1.15

GGAGCTAGAA
switch fluorescence ratio: 1.49

CGCAACATTT
switch fluorescence ratio: 1.09

CGGGCATCAT
switch fluorescence ratio: 1.01

TGCTAGTGCA
switch fluorescence ratio: 0.975

ACACGCGGCT
switch fluorescence ratio: 1.15

TGGTTGGATA
switch fluorescence ratio: 0.999

AAACATCTTC
switch fluorescence ratio: 0.991

CTTAGAGAA
switch fluorescence ratio: 1.01

GCGAATCATC
switch fluorescence ratio: 0.999

TTACTTCCTG
switch fluorescence ratio: 1.02

GTCAGACTAC
switch fluorescence ratio: 1.02

AGTGTGCGGG
switch fluorescence ratio: 0.924

CACGCCTTAC
switch fluorescence ratio: 4.65

TTTAAGCTTC
switch fluorescence ratio: 1.01

CGGATTTTGT
switch fluorescence ratio: 0.992

ATATACTCTC
switch fluorescence ratio: 1.05

TGTTAGGCGG
switch fluorescence ratio: 1.02

CTGTATGTGG
switch fluorescence ratio: 1.03

CTTTGTCCTC
switch fluorescence ratio: 0.973

CCCCTTATTA
switch fluorescence ratio: 1.03

AATAAACTT
switch fluorescence ratio: 1.02

AGCTACAAAT
switch fluorescence ratio: 1

ACCCTGACCG
switch fluorescence ratio: 1.17

GCGTTTGGCC
switch fluorescence ratio: 0.936

CGGCGTACT
switch fluorescence ratio: 1.04

AAGGAAATAA
switch fluorescence ratio: 0.984

CAATGCCGTG
switch fluorescence ratio: 0.946

GGTCCTCAGG
switch fluorescence ratio: 1.23

TGGTCCAGGA
switch fluorescence ratio: 1

ATGCGGCACA
switch fluorescence ratio: 1.01

TAGCTGGAGT
switch fluorescence ratio: 0.98

CCCATACTTC
switch fluorescence ratio: 1.4

TGGATCGAAG
switch fluorescence ratio: 1.02

GTGCTCATTC
switch fluorescence ratio: 1.04

GCCAACCGGT
switch fluorescence ratio: 0.952

AGGCTAGAGG
switch fluorescence ratio: 1.04

ATGGACGATT
switch fluorescence ratio: 0.978

CGGATTCGCT
switch fluorescence ratio: 0.982

GGTATAAGAC
switch fluorescence ratio: 1.01

ATATCTTTAC
switch fluorescence ratio: 1.01

CACACTATAT
switch fluorescence ratio: 1.05

CTAGATGCAC
switch fluorescence ratio: 1.07

TGACAGCAGG
switch fluorescence ratio: 1.04

AAGGCATAAG
switch fluorescence ratio: 1.06

TTCTTATGTT
switch fluorescence ratio: 0.988

AAAGCGAAA
switch fluorescence ratio: 0.942

CGCGGTGCCG
switch fluorescence ratio: 0.949

TTGCAAGCTA
switch fluorescence ratio: 1.05

GCTGATGTTG
switch fluorescence ratio: 0.962

TCGGCCTAGC
switch fluorescence ratio: 1.07

AGGTAAGGAT
switch fluorescence ratio: 1.03

TCTTCGCGTT
switch fluorescence ratio: 0.989

GCCGATACCT
switch fluorescence ratio: 1.05

GGGACGTCGC
switch fluorescence ratio: 1.06

CGAATGAG
switch fluorescence ratio: 0.982

AGGAGGTACG
switch fluorescence ratio: 0.99

ACGGGTAGAA
switch fluorescence ratio: 0.971

GGCATCTATT
switch fluorescence ratio: 1.02

TAAGCAGATC
switch fluorescence ratio: 1.08

AGTGTTCGAA
switch fluorescence ratio: 1.03

AGGAAACTTG
switch fluorescence ratio: 1

AGCAAAATTG
switch fluorescence ratio: 1.09

GATAACATCG
switch fluorescence ratio: 1.03

TCGACGCTCT
switch fluorescence ratio: 1.95

ATTATTGAGT
switch fluorescence ratio: 0.994

AATGTTTTTC
switch fluorescence ratio: 0.959

ACGTTGATCG
switch fluorescence ratio: 1.01

TTCATCCCCT
switch fluorescence ratio: 1.05

TGCGTTTGT
switch fluorescence ratio: 0.949

TTACACTGAT
switch fluorescence ratio: 1.04

GGAATAAGAG
switch fluorescence ratio: 0.961

GATCCTCTTG
switch fluorescence ratio: 0.989

TTTATGTGA
switch fluorescence ratio: 1.07

TACTATCAGT
switch fluorescence ratio: 0.97

GTTTCAGTGC
switch fluorescence ratio: 1

TTGTCGTCGA
switch fluorescence ratio: 1.02

GACTACTGTG
switch fluorescence ratio: 1.05

TAATCTGTAT
switch fluorescence ratio: 0.983

ACGGGCAACA
switch fluorescence ratio: 1.09

ATATCGAGAA
switch fluorescence ratio: 0.968

ACGGGGTCGT
switch fluorescence ratio: 1.02

ATCGTGGAAG
switch fluorescence ratio: 0.995

TTGGACCATT
switch fluorescence ratio: 1.02

ATTGCTTTTA
switch fluorescence ratio: 1.01

ACACGGACGC
switch fluorescence ratio: 1.21

ATGCAGTTGT
switch fluorescence ratio: 1.01

GGTCTGTTAC
switch fluorescence ratio: 1.06

TGTTAGGTAC
switch fluorescence ratio: 1.07

TCGTACCGTG
switch fluorescence ratio: 1.02

AAGAGAATTG
switch fluorescence ratio: 0.955

CGTCAATTTG
switch fluorescence ratio: 1.03

ACCGTTGCGT
switch fluorescence ratio: 1.01

GGCCTCAGAT
switch fluorescence ratio: 0.982

CTTGTAATCC
switch fluorescence ratio: 1.14

GCATCACGCC
switch fluorescence ratio: 1.13

ACTGGATGCA
switch fluorescence ratio: 1.02

TCGACTCATT
switch fluorescence ratio: 1.11

GCCCAACCTT
switch fluorescence ratio: 1.38

CACCTATATG
switch fluorescence ratio: 1.03

GCGTACCGGT
switch fluorescence ratio: 1.01

GATCACATTG
switch fluorescence ratio: 1.03

TGAAGTCTAA
switch fluorescence ratio: 0.976

CTCCTCCTCT
switch fluorescence ratio: 1.27

CGCCCTGGCA
switch fluorescence ratio: 1.01

CGCTATCTAG
switch fluorescence ratio: 1.04

TACTACAGAT
switch fluorescence ratio: 1.02

GGAACTAGTT
switch fluorescence ratio: 1.01

CAAGCTTCGA
switch fluorescence ratio: 1.02

TAAGGGCGTA
switch fluorescence ratio: 1

TCTGCCAGTA
switch fluorescence ratio: 0.989

CCTTTCCCTT
switch fluorescence ratio: 1.05

TTGGAATCTT
switch fluorescence ratio: 1.02

AAACAATGCG
switch fluorescence ratio: 1

TTGCCACCTG
switch fluorescence ratio: 1.01

ACGGCTGTGA
switch fluorescence ratio: 0.991

AGCGTACCC
switch fluorescence ratio: 1.03

GGAAGTCGAC
switch fluorescence ratio: 1.07

GGTGATATCG
switch fluorescence ratio: 1.02

TAAACTTATT
switch fluorescence ratio: 1.01

TTACACTACT
switch fluorescence ratio: 1.29

TCGTTAGCAG
switch fluorescence ratio: 2.43

CGGATTCCGT
switch fluorescence ratio: 0.982

TGGGTGCG
switch fluorescence ratio: 0.993

GCGCGGACGG
switch fluorescence ratio: 1.04

ACTACTCGTG
switch fluorescence ratio: 1.02

CAAGACTGCA
switch fluorescence ratio: 1.05

CGGTTTCGAA
switch fluorescence ratio: 1.01

GGAAGATTTA
switch fluorescence ratio: 0.997

GCTACGTCGC
switch fluorescence ratio: 0.995

TATAATTAA
switch fluorescence ratio: 0.944

ACCAAGTGAT
switch fluorescence ratio: 1.04

CGGGAGCCGT
switch fluorescence ratio: 1.12

GACCTGCTAG
switch fluorescence ratio: 1.04

CTGCATCCA
switch fluorescence ratio: 1.07

TTAATAAAGA
switch fluorescence ratio: 0.998

AGTAGAGGAA
switch fluorescence ratio: 0.96

TTTCCCCGTC
switch fluorescence ratio: 1.11

AATCCCACAT
switch fluorescence ratio: 1.02
